Laboratory results published in PubChem BioAssay AID1347417 (National Center for Advancing Translational Sciences (NCATS), 2020).
Screen size: about 120,000 compounds; about 5,300 (4.4%) were called active. Inconclusive means that the source gave no clear call. Such entries were picked first, then a sample of the others. The call rests on the fitted dose curve; in most records, active means well fitted inhibition curve with a large enough effect; inconclusive means small, poorly fitted or top-dose-only effect; inactive means no such curve, though single readings can be large or run the other way. Where the call is inconclusive, the potency comes from a doubtful curve fit.

Assay: qHTS Primary assay for Inhibitors of Plasmodium falciparum Dd2 growth in vitro; further: nearly all actives have a fitted effect of over 65% in size;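 on activity, negative = inhibition: plate controls were DMSO vehicle for no effect and reference drug for full effect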
Details: P. falciparum Dd2 growth, SYBR Green, 72 h; activity, negative = inhibition: at 28.9 µM (top of the series) unless noted; series mostly up to 28.9 µM
Outline: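 Readout: SYBR Green fluorescence, 485 nm excitation, 535 nm emission, after ~16 h lysis at 37C. Before that, Dd2-infected red cells (2.5% hematocrit) grew 72 h with compound, 29 uM top final concentration.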
Potency means the concentration at half of the fitted maximal effect; tags describe the fitted curve by direction and shape.

**Q.** Which “activity, negative = inhibition” value does the source give for `O=C1CC(c2ccccc2)N(C(=O)C2CC2)CCCN(C(=O)c2cccs2)CCN1` (centres undefined) here?
**A.** Its value is inactive: -17.9%.

**Q.** With `COCCNC(=O)[C@H]1C[C@H](Oc2ccccc2)CN1Cc1sccc1C` as the compound, how does the “outcome” value read?
**A.** Its value is “inactive”.

**Q.** Which “activity, negative = inhibition” value does the source give for `COCC(=O)N1CC[C@@H](CC(=O)O)[C@@H](CCN2CCN(c3cccc(C(F)(F)F)c3)CC2)C1` here?
**A.** The value was inactive: 10.2%.

**Q.** Which Potency does the source give for `Cc1ccsc1C(=O)N1CCCC(n2cc(-c3nc(C4CC4)no3)nn2)C1` (centres undefined) here?
**A.** Its Potency is inconclusive: 1.41 µM [inhibitor, partial curve, poor fit].

**Q.** With `N#Cc1ccccc1CN1CCNc2nc(CNc3ccc(F)cc3)n(Cc3ccccc3)c2C1=O` as the compound, how does the Potency read?
**A.** Its Potency is inconclusive: 12.6 µM [inhibitor, single point].

**Q.** With `COc1ccccc1NC(=O)CN1C(=O)C(C)(C)c2ccccc21` as the compound, how does the Potency read?
**A.** The Potency was inconclusive: 1 µM [inhibitor, single point].

**Q.** Which Potency does the source give for `COc1ccc(CN2CCCC3(CNc4ccccc4[S+](=O)([O-])N3)C2)cc1` (centres undefined) here?
**A.** Its Potency is inconclusive: 1.41 µM [inhibitor, full curve, poor fit].

**Q.** For `O=C(CCc1ccnc(N2CCCC2)c1)N1CCN(c2ccccc2)CC1`, which Potency is on record?
**A.** Its Potency is inconclusive: 7.94 µM [inhibitor, partial curve, poor fit].

**Q.** For `COCCn1c(C)cnc1CC1CCCN(C(=O)c2ccccn2)C1` (centres undefined), which “activity, negative = inhibition” value is on record?
**A.** The value was inactive: 15.1%.

**Q.** With `Cc1ccc2oc(C(=O)NCC(c3ccc(Cl)cc3)N3CCOCC3)c(C)c2c1` (centres undefined) as the compound, how does the Potency read?
**A.** Its Potency is inconclusive: 12.6 µM [inhibitor, single point].

**Q.** Which “outcome” value does the source give for `CCCCN1C(=O)C(CC(=O)NC(C)(C)CC)Sc2ncccc21` (centres undefined) here?
**A.** Its value is “inactive”.

**Q.** For `CCc1ccc(C(C)NC(=O)c2ccc3c(c2)N(S(=O)(=O)c2ccccc2)CC3)cc1` (centres undefined), which Potency is on record?
**A.** The Potency was inconclusive: 12.6 µM [inhibitor, single point].

**Q.** Which “activity, negative = inhibition” value does the source give for `O=C(NCCCN1CCCC1)c1cn2ccnc(-c3ccccc3)c2n1` here?
**A.** Its value is inactive: -15.9%.

**Q.** With `CN1C(=O)COC[C@@H]1[C@H](O)c1ccc(NC(=O)c2ccc(F)cc2)cc1` as the compound, how does the “activity, negative = inhibition” value read?
**A.** The value was inactive: -15.7% [at 44.1 µM].

**Q.** With `O=C(Cc1ccsc1)N1CCC([C@@H]2CNC[C@H]2CO)CC1` as the compound, how does the “activity, negative = inhibition” value read?
**A.** Its value is inactive: -11.1%.

**Q.** For `CC(=O)c1ccc(NC(=O)CSc2nnc3c(n2)[nH]c2ccccc23)cc1`, which Potency is on record?
**A.** The Potency was inconclusive: 20 µM [inhibitor, single point].

**Q.** With `COc1ccc2cc1Nc1ccc(cc1)C[C@H](NCc1ccc(C)o1)C(=O)N(C)[C@H](C(=O)NCCC(C)C)C2` as the compound, how does the Potency read?
**A.** Its Potency is active: 1 µM.

**Q.** With `COc1ccc(-c2cc(C(F)(F)F)nc(SCCC(=O)Nc3ccc(F)cc3F)n2)cc1` as the compound, how does the Potency read?
**A.** The Potency was inconclusive: 17.8 µM [inhibitor, single point].

**Q.** With `COCCN1C(=O)CS(=O)(=O)C12CCN(C(=O)COc1ccc(Cl)cc1)CC2` as the compound, how does the “activity, negative = inhibition” value read?
**A.** Its value is inactive: -7.79%.

**Q.** Which Potency does the source give for `O=C1Nc2ccccc2CN(CC2CCCCC2)C12CCNCC2` here?
**A.** Its Potency is active: 11.2 µM.

**Q.** Which “activity, negative = inhibition” value does the source give for `COCCNC(=O)N1CCN(c2cnccn2)CC(C(=O)O)C1` (centres undefined) here?
**A.** The value was inactive: 8.1%.

**Q.** Which Potency does the source give for `O=C(NCCCn1cccn1)C1Cn2cccc2C(=O)N1Cc1ccccc1` (centres undefined) here?
**A.** The Potency was inconclusive: 0.708 µM [inhibitor, full curve, poor fit].

**Q.** Which Potency does the source give for `Cc1ccc(F)c(C(CC(=O)NCc2ccco2)c2c[nH]c3ccc([N+](=O)[O-])cc23)c1` (centres undefined) here?
**A.** Its Potency is inconclusive: 1.41 µM [inhibitor, partial curve, poor fit].

**Q.** Which “activity, negative = inhibition” value does the source give for `COc1ccccc1N1CCN(C(=O)c2ccccc2-c2ncc[nH]2)CC1=O` here?
**A.** The value was inactive: 5.23%.

**Q.** Which “activity, negative = inhibition” value does the source give for `Cc1cccnc1NC(=O)Cn1nc2c(cc1=O)CCCCC2` here?
**A.** The value was inactive: 14.2%.

**Q.** Which “outcome” value does the source give for `COc1ccc(N2CCN(C(=O)CCCCn3c(=O)[nH]c4ccsc4c3=O)CC2)cc1` here?
**A.** The value was “inactive”.

**Q.** Which Potency does the source give for `CC1=C[C@@H](CNCc2ccco2)[C@H](C(C)C)C[C@H]1Cc1nnc(-c2ccccc2F)o1` here?
**A.** The Potency was inconclusive: 2.51 µM [inhibitor, partial curve, poor fit].

**Q.** Which Potency does the source give for `COc1ccc(-c2nnc3ccc(N(C)Cc4ccccc4)nn23)nc1` here?
**A.** Its Potency is active: 7.94 µM.

**Q.** For `CC1(C(=O)NCc2cccnc2)CN(Cc2ccccc2)Cc2ccc(N3CCOCC3)nc21` (centres undefined), which Potency is on record?
**A.** Its Potency is inconclusive: 1.41 µM [inhibitor, partial curve, poor fit].

**Q.** For `COc1cc(F)ccc1-c1ccc2c(n1)c(=O)ncn2CC1CC1`, which Potency is on record?
**A.** The Potency was inconclusive: 14.1 µM [inhibitor, single point].

**Q.** For `COc1ccc(N(C)C(=O)c2oc(=O)c3ccccc3c2-c2ccc(C)cc2)c(OC)c1`, which Potency is on record?
**A.** Its Potency is inconclusive: 10 µM [inhibitor, single point].

**Q.** Which Potency does the source give for `Cc1cccc(OCCc2noc(C3CCCCN3)n2)c1` (centres undefined) here?
**A.** Its Potency is inconclusive: 17.8 µM [inhibitor, single point].

**Q.** Which Potency does the source give for `CCOc1ccc(NC(=O)c2cnn3c2NC(C)=C(C(=O)Nc2ccc(Cl)cc2)C3c2ccc(OC)c(OC)c2)cc1` (centres undefined) here?
**A.** The Potency was inconclusive: 17.8 µM [inhibitor, single point].

**Q.** Which Potency does the source give for `COc1ccc(F)cc1Nc1cnc2ccc(N(C)Cc3cccnc3)nn12` here?
**A.** The Potency was inconclusive: 4.47 µM [inhibitor, single point].

**Q.** For `COc1cccc(CNc2sc3c(c2C(=O)Nc2ccc(OC)cc2OC)CCC3)c1`, which Potency is on record?
**A.** Its Potency is inconclusive: 8.91 µM [inhibitor, single point].

**Q.** With `Cc1nnnn1-c1cccc(C(=O)Nc2ccc3c(c2)C(=O)N2CCC[C@H]2C(=O)N3)c1` as the compound, how does the “activity, negative = inhibition” value read?
**A.** The value was inactive: -2.59%.

**Q.** For `O[C@@H]1C[C@@H](c2nc(-c3ccc4c(c3)OCO4)no2)N(Cc2cc3ccccc3o2)C1`, which “activity, negative = inhibition” value is on record?
**A.** The value was inactive: -13.6% [at 44.1 µM].

**Q.** Which Potency does the source give for `CCOC(=O)CCNC(=O)N1CCC(Cc2noc(-c3ccncc3)n2)C1` (centres undefined) here?
**A.** The Potency was inconclusive: 12.6 µM [inhibitor, single point].

**Q.** Which Potency does the source give for `O=C(C1CCCN(c2nc(-c3ccccc3)nc3c2CCC3)C1)N1CCNCC1` (centres undefined) here?
**A.** Its Potency is inconclusive: 8.91 µM [inhibitor, single point].

**Q.** For `Cc1cccc(OC(C)C(=O)NCC2(N(C)C)CCCCC2)c1C` (centres undefined), which Potency is on record?
**A.** Its Potency is inconclusive: 1 µM [inhibitor, full curve, poor fit].

**Q.** For `Cc1cccc(NC(=O)N2CCCCCC2CN2CCc3ccccc3C2)c1` (centres undefined), which Potency is on record?
**A.** The Potency was inconclusive: 3.98 µM [inhibitor, single point].

**Q.** With `O=C(O)CC1COCCN1C(=O)Cn1cnnn1` (centres undefined) as the compound, how does the “activity, negative = inhibition” value read?
**A.** Its value is inactive: 6.64%.

**Q.** With `O=C(NCc1ccccc1F)c1ccc2c(c1)CN(Cc1cc(F)c(F)c(F)c1)CCO2` as the compound, how does the Potency read?
**A.** Its Potency is inconclusive: 17.8 µM [inhibitor, single point].

**Q.** With `C[S+](=O)([O-])N1Cc2ccccc2CC2(CCCCN2CCc2ccccc2)C1` (centres undefined) as the compound, how does the Potency read?
**A.** Its Potency is inconclusive: 7.08 µM [inhibitor, partial curve].
